The record followed here is the supplement of paper PMC12217912.

This is one part of the list. Sequences were assembled here from the parent chain. Values near 0.05 are background.

Sequences and labels used below:
B1: TEV protease; numbered along this chain (parent)
chain: MGESLFKGPRDYNPISSSICHLTNESDGHTTSLYGIGFGPFIITNKHLFRRNNGTLVVQSLHGVFKVKDTTTLQQHLVDGRDMIIIRMPKDFPPFPQKLKFREPQREERICLVTTNFQTKSMSSMVSDTSCTFPSGDGIFWKHWIQTKDGQCGSPLVSTRDGFIVGIHSASNFTNTNNYFTSVPKNFMELLTNQEAQQWVSGWRLNADSVLWGGHKVFMVKPEEPFQPVKEATQL

This test covers variants of B1. Nature of the test: raw area under fraction-flipped curve 0-4 h after induction (AUC4h, not background-subtracted), DNA-recorder readout of cleavage of the substrate (dimensionless); higher = more cleavage of the substrate by the protease variant. As to conditions: temperature: 34 °C; time window: 0-4 h after rhamnose induction. As to the method: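 In vivo DNA recorder in E. coli TOP10(DE3) ΔrhaA at 34 °C. Each TEVp single-site mutant (parent TEVp 0) is paired with a single-site variant of the 7-mer TEVs (canonical ENLYFQ|S). The substrate sits between flexible linkers in a Bxb1-sfGFP-TEVs-SsrA fusion, so cleavage stabilises Bxb1 and speeds flipping of a recombination array, read by NGS. The value is the raw area under the fraction-flipped curve over 0-4 h after rhamnose induction (AUC4h), with ≥20 reads per time point. It is not background-subtracted; inactive controls average about 0.047.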
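Further: Bxb1 expression induced with 0.2% (w/v) L-rhamnose at OD600 near 0.5, cultures sampled hourly, flipped fraction per protease–substrate barcode pair counted by paired-end Illumina sequencing.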

As to MGEDLFKGPRDYNPISSSICHLTNESDGHTTSLYGIGFGPFIITNKHLFRRNNGTLVVQSLHGVFKVKDTTTLQQHLVDGRDMIIIRMPKDFPPFPQKLKFREPQREERICLVTTNFQTKSMSSMVSDTSCTFPSGDGIFWKHWIQTKDGQCGSPLVSTRDGFIVGIHSASNFTNTNNYFTSVPKNFMELLTNQEAQQWVSGWRLNADSVLWGGHKVFMVKPEEPFQPVKEATQL [S4D], the “area with substrate ENLYFQA” value amounted to 0.101, the “area with substrate ENLYFQC” value amounted to 0.143, the “area with substrate ENLYFQG” value amounted to 0.0983 and the “area with substrate ENLYFQH” value was determined as 0.0924. In addition, the “area with substrate ENLYFQI” value was 0.0612, the “area with substrate ENLYFQK” value is 0.056, the “area with substrate ENLYFQL” value stood at 0.0629 and the “area with substrate ENLYFQN” value is 0.0602. The “area with substrate ENLYFQQ” value came out at 0.103, the “area with substrate ENLYFQR” value was found to be 0.0526, the “area with substrate ENLYFQS” value was 0.113 and the “area with substrate ENLYFQT” value amounted to 0.0645.

Take MGESLFKGPRWYNPISSSICHLTNESDGHTTSLYGIGFGPFIITNKHLFRRNNGTLVVQSLHGVFKVKDTTTLQQHLVDGRDMIIIRMPKDFPPFPQKLKFREPQREERICLVTTNFQTKSMSSMVSDTSCTFPSGDGIFWKHWIQTKDGQCGSPLVSTRDGFIVGIHSASNFTNTNNYFTSVPKNFMELLTNQEAQQWVSGWRLNADSVLWGGHKVFMVKPEEPFQPVKEATQL [D11W]: the “area with substrate ENLYFQA” value was 0.117, the “area with substrate ENLYFQC” value was determined as 0.106, the “area with substrate ENLYFQF” value is 0.0786 and the “area with substrate ENLYFQG” value was determined as 0.119. Also, the “area with substrate ENLYFQH” value was 0.0948, the “area with substrate ENLYFQI” value turned out to be 0.0592, the “area with substrate ENLYFQL” value was 0.0696 and the “area with substrate ENLYFQN” value worked out at 0.0699. Besides, the “area with substrate ENLYFQP” value was determined as 0.0649, the “area with substrate ENLYFQR” value is 0.066, the “area with substrate ENLYFQS” value was 0.095 and the “area with substrate ENLYFQT” value was 0.0696. Besides, the “area with substrate ENLYFQW” value worked out at 0.0617 and the “area with substrate ENLYFQY” value was 0.0822.

For the variant MGESLFKGPRDYNIISSSICHLTNESDGHTTSLYGIGFGPFIITNKHLFRRNNGTLVVQSLHGVFKVKDTTTLQQHLVDGRDMIIIRMPKDFPPFPQKLKFREPQREERICLVTTNFQTKSMSSMVSDTSCTFPSGDGIFWKHWIQTKDGQCGSPLVSTRDGFIVGIHSASNFTNTNNYFTSVPKNFMELLTNQEAQQWVSGWRLNADSVLWGGHKVFMVKPEEPFQPVKEATQL [P14I], the “area with substrate ENLYFQA” value is 0.0809, the “area with substrate ENLYFQC” value turned out to be 0.0968, the “area with substrate ENLYFQD” value was found to be 0.0732 and the “area with substrate ENLYFQF” value is 0.0694. The “area with substrate ENLYFQG” value was 0.0677, the “area with substrate ENLYFQH” value was found to be 0.0458, the “area with substrate ENLYFQI” value amounted to 0.0637 and the “area with substrate ENLYFQK” value is 0.051. Besides, the “area with substrate ENLYFQL” value was 0.0607, the “area with substrate ENLYFQM” value stood at 0.101, the “area with substrate ENLYFQN” value amounted to 0.076 and the “area with substrate ENLYFQP” value amounted to 0.046. Besides, the “area with substrate ENLYFQR” value came out at 0.0518, the “area with substrate ENLYFQS” value was determined as 0.0885, the “area with substrate ENLYFQT” value came out at 0.0707 and the “area with substrate ENLYFQV” value stood at 0.0561. Besides, the “area with substrate ENLYFQW” value amounted to 0.0646 and the “area with substrate ENLYFQY” value came out at 0.0925.

As to MGESLFKGPRDYNPIDSSICHLTNESDGHTTSLYGIGFGPFIITNKHLFRRNNGTLVVQSLHGVFKVKDTTTLQQHLVDGRDMIIIRMPKDFPPFPQKLKFREPQREERICLVTTNFQTKSMSSMVSDTSCTFPSGDGIFWKHWIQTKDGQCGSPLVSTRDGFIVGIHSASNFTNTNNYFTSVPKNFMELLTNQEAQQWVSGWRLNADSVLWGGHKVFMVKPEEPFQPVKEATQL [S16D], the “area with substrate ENLYFQA” value was 0.0751, the “area with substrate ENLYFQD” value was 0.0673, the “area with substrate ENLYFQG” value was found to be 0.0752 and the “area with substrate ENLYFQI” value came to 0.071. Besides, the “area with substrate ENLYFQK” value worked out at 0.068, the “area with substrate ENLYFQL” value came out at 0.0616, the “area with substrate ENLYFQM” value stood at 0.0586 and the “area with substrate ENLYFQN” value was 0.0726. Besides, the “area with substrate ENLYFQQ” value came to 0.0573, the “area with substrate ENLYFQR” value turned out to be 0.0634, the “area with substrate ENLYFQS” value was found to be 0.0958 and the “area with substrate ENLYFQT” value came to 0.0626. In addition, the “area with substrate ENLYFQW” value is 0.0383.

MGESLFKGPRDYNPIISSICHLTNESDGHTTSLYGIGFGPFIITNKHLFRRNNGTLVVQSLHGVFKVKDTTTLQQHLVDGRDMIIIRMPKDFPPFPQKLKFREPQREERICLVTTNFQTKSMSSMVSDTSCTFPSGDGIFWKHWIQTKDGQCGSPLVSTRDGFIVGIHSASNFTNTNNYFTSVPKNFMELLTNQEAQQWVSGWRLNADSVLWGGHKVFMVKPEEPFQPVKEATQL [S16I]: the “area with substrate ENLYFQA” value was determined as 0.0998, the “area with substrate ENLYFQC” value was determined as 0.0719, the “area with substrate ENLYFQD” value is 0.075 and the “area with substrate ENLYFQE” value amounted to 0.0548. The “area with substrate ENLYFQF” value came out at 0.0856, the “area with substrate ENLYFQG” value turned out to be 0.0943, the “area with substrate ENLYFQH” value is 0.0704 and the “area with substrate ENLYFQI” value is 0.0562. The “area with substrate ENLYFQK” value is 0.0768, the “area with substrate ENLYFQL” value turned out to be 0.0693, the “area with substrate ENLYFQM” value worked out at 0.0759 and the “area with substrate ENLYFQN” value turned out to be 0.0869. The “area with substrate ENLYFQP” value stood at 0.0492, the “area with substrate ENLYFQQ” value was 0.0529, the “area with substrate ENLYFQR” value stood at 0.0737 and the “area with substrate ENLYFQS” value is 0.0894. The “area with substrate ENLYFQT” value was 0.0687, the “area with substrate ENLYFQV” value was found to be 0.0607, the “area with substrate ENLYFQW” value was 0.0557 and the “area with substrate ENLYFQY” value is 0.0701.

Turning to MGESLFKGPRDYNPIESSICHLTNESDGHTTSLYGIGFGPFIITNKHLFRRNNGTLVVQSLHGVFKVKDTTTLQQHLVDGRDMIIIRMPKDFPPFPQKLKFREPQREERICLVTTNFQTKSMSSMVSDTSCTFPSGDGIFWKHWIQTKDGQCGSPLVSTRDGFIVGIHSASNFTNTNNYFTSVPKNFMELLTNQEAQQWVSGWRLNADSVLWGGHKVFMVKPEEPFQPVKEATQL [S16E], the “area with substrate ENLYFQA” value is 0.105, the “area with substrate ENLYFQC” value turned out to be 0.111, the “area with substrate ENLYFQF” value came to 0.0765 and the “area with substrate ENLYFQG” value was 0.0772. The “area with substrate ENLYFQH” value was determined as 0.0824, the “area with substrate ENLYFQI” value came to 0.0606, the “area with substrate ENLYFQK” value came to 0.0588 and the “area with substrate ENLYFQL” value worked out at 0.0632. The “area with substrate ENLYFQM” value turned out to be 0.0913, the “area with substrate ENLYFQN” value stood at 0.084, the “area with substrate ENLYFQP” value was found to be 0.0581 and the “area with substrate ENLYFQQ” value is 0.0786. Moreover, the “area with substrate ENLYFQR” value came to 0.0604, the “area with substrate ENLYFQS” value amounted to 0.101, the “area with substrate ENLYFQT” value is 0.0755 and the “area with substrate ENLYFQV” value is 0.0524. For the same variant, the “area with substrate ENLYFQW” value was found to be 0.0654 and the “area with substrate ENLYFQY” value was 0.0736.

As to MGESLFKGPRDYNPIASSICHLTNESDGHTTSLYGIGFGPFIITNKHLFRRNNGTLVVQSLHGVFKVKDTTTLQQHLVDGRDMIIIRMPKDFPPFPQKLKFREPQREERICLVTTNFQTKSMSSMVSDTSCTFPSGDGIFWKHWIQTKDGQCGSPLVSTRDGFIVGIHSASNFTNTNNYFTSVPKNFMELLTNQEAQQWVSGWRLNADSVLWGGHKVFMVKPEEPFQPVKEATQL [S16A], the “area with substrate ENLYFQA” value was 0.11, the “area with substrate ENLYFQC” value stood at 0.107, the “area with substrate ENLYFQE” value is 0.0757 and the “area with substrate ENLYFQF” value is 0.0893. Also, the “area with substrate ENLYFQG” value was found to be 0.0934, the “area with substrate ENLYFQH” value is 0.078, the “area with substrate ENLYFQK” value is 0.0674 and the “area with substrate ENLYFQL” value is 0.0568. Moreover, the “area with substrate ENLYFQM” value is 0.101, the “area with substrate ENLYFQP” value is 0.0649, the “area with substrate ENLYFQQ” value was 0.0831 and the “area with substrate ENLYFQR” value is 0.0739. In addition, the “area with substrate ENLYFQS” value was found to be 0.109, the “area with substrate ENLYFQT” value was 0.0686, the “area with substrate ENLYFQV” value amounted to 0.0642 and the “area with substrate ENLYFQW” value worked out at 0.0606.

With MGESLFKGPRDYNPIMSSICHLTNESDGHTTSLYGIGFGPFIITNKHLFRRNNGTLVVQSLHGVFKVKDTTTLQQHLVDGRDMIIIRMPKDFPPFPQKLKFREPQREERICLVTTNFQTKSMSSMVSDTSCTFPSGDGIFWKHWIQTKDGQCGSPLVSTRDGFIVGIHSASNFTNTNNYFTSVPKNFMELLTNQEAQQWVSGWRLNADSVLWGGHKVFMVKPEEPFQPVKEATQL [S16M], the “area with substrate ENLYFQA” value came to 0.0975, the “area with substrate ENLYFQC” value was found to be 0.102, the “area with substrate ENLYFQE” value was 0.064 and the “area with substrate ENLYFQF” value came out at 0.0928. Also, the “area with substrate ENLYFQH” value worked out at 0.0919, the “area with substrate ENLYFQI” value amounted to 0.0614, the “area with substrate ENLYFQK” value came to 0.065 and the “area with substrate ENLYFQL” value is 0.0622. Besides, the “area with substrate ENLYFQM” value is 0.0887, the “area with substrate ENLYFQN” value is 0.0548, the “area with substrate ENLYFQR” value was 0.0613 and the “area with substrate ENLYFQS” value is 0.111. Also, the “area with substrate ENLYFQT” value amounted to 0.0656, the “area with substrate ENLYFQV” value was found to be 0.0496 and the “area with substrate ENLYFQW” value was determined as 0.0647.
